Source: the CheMixHub ionic liquid set
Further values from the same series stand in other lists.

Assay: xn = mol fraction of the nth substance listed
Settings: 101 kPa

COCCn1cc[n+](C)c1.N#C[S-] + CC1COC(=O)O1
Settings | electrical conductivity, 338.15 K [S/m] | electrical conductivity, 343.15 K [S/m] | viscosity, 338.15 K [mPa·s] | viscosity, 343.15 K [mPa·s]
x1 = 0.1022 | 2.34 | 2.51 | 1.44 | 1.36
x1 = 0.2001 | 3.15 | 3.42 | 1.73 | 1.63
x1 = 0.3021 | 3.15 | 3.43 | 2.2 | 2.05
x1 = 0.3996 | 2.95 | 3.2 | 2.69 | 2.42
x1 = 0.5012 | 2.71 | 2.96 | 3.18 | 2.91
x1 = 0.6015 | 2.49 | 2.74 | 3.92 | 3.64
x1 = 0.7032 | 2.27 | 2.54 | 5.1 | 4.69
x1 = 0.8004 | 2.06 | 2.33 | 6.8 | 6.2
x1 = 0.9002 | 1.88 | 2.11 | 9.2 | 8.5
x1 = 1 | 1.72 | 1.92 | 12.9 | 11.3

CCCCCCCCCCCC[N+](C)(C)Cc1ccccc1.[Cl-] + C[C@H](N)C(=O)O + O
electrical conductivity [S/m]
Settings | 308.15 K | 313.15 K
x2 = 0.0009017, x1 = 0.000273 | – | 0.125
x2 = 0.0009017, x1 = 0.0002923 | – | 0.13
x2 = 0.0009017, x1 = 0.00031 | – | 0.135
x2 = 0.0009017, x1 = 0.0003245 | – | 0.138
x2 = 0.0009018, x1 = 0.0001745 | – | 0.0955
x2 = 0.0009018, x1 = 0.0002014 | – | 0.104
x2 = 0.0009018, x1 = 0.0002282 | – | 0.112
x2 = 0.0009018, x1 = 0.0002515 | – | 0.119
x2 = 0.0009019, x1 = 5.732e-05 | – | 0.0341
x2 = 0.0009019, x1 = 7.956e-05 | – | 0.0468
x2 = 0.0009019, x1 = 0.0001004 | – | 0.0583
x2 = 0.0009019, x1 = 0.0001231 | – | 0.0708
x2 = 0.0009019, x1 = 0.0001486 | – | 0.0843
x2 = 0.001773, x1 = 8.528e-05 | – | 0.0495
x2 = 0.001773, x1 = 0.0001054 | – | 0.0605
x2 = 0.001773, x1 = 0.0001263 | – | 0.072
x2 = 0.001773, x1 = 0.00015 | – | 0.0843
x2 = 0.001773, x1 = 0.000176 | – | 0.095
x2 = 0.001773, x1 = 0.0002016 | – | 0.103
x2 = 0.001773, x1 = 0.0002266 | – | 0.111
x2 = 0.001773, x1 = 0.0002493 | – | 0.117
x2 = 0.001773, x1 = 0.0002699 | 0.11 | 0.123
x2 = 0.001773, x1 = 0.0002888 | 0.115 | 0.128
x2 = 0.001773, x1 = 0.0003053 | 0.119 | 0.133
x2 = 0.001773, x1 = 0.0003178 | 0.123 | 0.137
x2 = 0.001774, x1 = 6.278e-05 | – | 0.0369

CCCCCCCCCCCC[N+](C)(C)Cc1ccccc1.[Cl-] + NCC(=O)O + O
electrical conductivity [S/m]
Settings | 308.15 K | 313.15 K
x2 = 0.0008873, x1 = 0.0002851 | – | 0.128
x2 = 0.0008873, x1 = 0.0003053 | – | 0.134
x2 = 0.0008873, x1 = 0.0003201 | – | 0.138
x2 = 0.0008874, x1 = 0.0001939 | – | 0.102
x2 = 0.0008874, x1 = 0.0002197 | – | 0.11
x2 = 0.0008874, x1 = 0.0002434 | – | 0.117
x2 = 0.0008874, x1 = 0.0002654 | – | 0.123
x2 = 0.0008875, x1 = 5.836e-05 | – | 0.0349
x2 = 0.0008875, x1 = 8.059e-05 | – | 0.0474
x2 = 0.0008875, x1 = 0.0001014 | – | 0.0589
x2 = 0.0008875, x1 = 0.0001212 | – | 0.0699
x2 = 0.0008875, x1 = 0.0001444 | – | 0.0821
x2 = 0.0008875, x1 = 0.0001686 | – | 0.0935
x2 = 0.001759, x1 = 5.744e-05 | – | 0.0349
x2 = 0.001759, x1 = 7.9e-05 | – | 0.047
x2 = 0.001759, x1 = 9.947e-05 | – | 0.0584
x2 = 0.001759, x1 = 0.0001207 | – | 0.0699
x2 = 0.001759, x1 = 0.0001453 | – | 0.0829
x2 = 0.001759, x1 = 0.0001712 | – | 0.0942
x2 = 0.001759, x1 = 0.0001971 | – | 0.103
x2 = 0.001759, x1 = 0.0002216 | – | 0.11
x2 = 0.001759, x1 = 0.0002442 | – | 0.117
x2 = 0.001759, x1 = 0.000265 | 0.11 | 0.123
x2 = 0.001759, x1 = 0.000284 | 0.115 | 0.128
x2 = 0.001759, x1 = 0.0003018 | 0.119 | 0.133
x2 = 0.001759, x1 = 0.0003141 | 0.122 | 0.136
